This passage reports result_ITMP results from PMC13083723 (Patterns, 2026).

Each structure is given as a SMILES string. Out of some 5,400 compounds screened, about 190 (3.5%) showed an effect of 50% or more. The list shows a part of the results.

The subject of this assay is Vero-E6. Nature of the assay: primary screen, phospholipidosis by LipidTOX staining; higher = more effect of the substance. Conditions: 10 µM. An outline of the steps:
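Drug-induced phospholipidosis detected with HCS LipidTOX Red reagent in Vero-E6 cells. Compounds tested at 10 μM, with amiodarone (10 μM) as positive control and DMSO (0.1 v/v %) as vehicle.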
Take `O=c1[nH]c2cc(Cl)ccc2c(O)c1-c1cccc(Oc2ccccc2)c1`: the result_ITMP is listed as -1.56%. Then `Cc1ccc(C)c(OCCCC(C)(C)C(=O)O)c1`, with -3.41%; and `C=C1C(=O)O[C@H]2[C@H]1CC/C(C)=C/CC[C@@]1(C)O[C@@H]21` [R4A_0002204_002 / SPE_K34851558], with 16.6%. Then `Cc1c(N)nc([C@H](CC(N)=O)NC[C@H](N)C(N)=O)nc1C(=O)NC(C(=O)N[C@H](C)[C@@H](O)[C@H](C)C(=O)N[C@H](C(=O)NCCc1nc(-c2nc(C(=O)NCCCNCCCCN)cs2)cs1)[C@@H](C)O)[C@@H](O[C@H]1O[C@H](CO)[C@H](O)[C@@H](O)[C@H]1O[C@H]1O[C@H](CO)[C@@H](O)[C@@H](OC(N)=O)[C@@H]1O)c1c[nH]cn1` (stereo partly drawn), with 12.8%. Then `CN/C(=N\C#N)NCCSCc1csc(N=C(N)N)n1`, with 2.7%. With `O=C(O)C(=O)Nc1cccc(-c2nn[nH]n2)c1`, the result_ITMP is -4.71%. Then `Nc1ncnc2c1ncn2C1O[C@H](COP(=O)(O)O)[C@@H](O)[C@H]1O` (stereo partly drawn), with -0.69%; and `N=C(N)NCCC[C@H](N)C(=O)NCC(=O)N[C@@H](CC(=O)O)C(=O)N[C@@H](CO)C(=O)O`, with -0.37%. In the case of `CCC(=O)O[C@]1(C(=O)COC(C)=O)CC[C@H]2[C@@H]3C[C@H](C)C4=CC(=O)C=C[C@]4(C)[C@H]3[C@@H](O)C[C@@]21C` it was -5.06%; in that of `COc1cc2c(cc1OC)[C@@H]1Cc3ccc(OC)c(OC)c3CN1CC2`, 0%; in that of `O=C(CCCN1CCC(O)(c2ccc(Cl)cc2)CC1)c1ccc(F)cc1`, 3.22%. In the case of `CC(C)=CCC[C@](C)(O[C@@H]1O[C@H](CO)[C@@H](O)[C@H](O)[C@H]1O)[C@H]1CC[C@]2(C)[C@@H]1[C@H](O)C[C@@H]1[C@@]3(C)CC[C@H](O)C(C)(C)[C@@H]3CC[C@]12C` it was -6.64%; in that of `CCCCCCCCCCOc1cc2c(O)c(C(=O)OCC)cnc2cc1OCC`, -0.21%; in that of `Cc1ccc(Oc2ccccc2-c2csc(NC3=NCCCN3)n2)c(C)c1`, 6.61%.

Regarding `CC(=O)NCCNc1cc(Cl)nn2c(-c3cccc(S(=O)(=O)N(C)C)c3)c(C)nc12`, the result_ITMP is given as -1.93%.

Regarding `COc1ccc2c(c1)C(=O)N(CCc1ccc(S(=O)(=O)NC(=O)NC3CCCCC3)cc1)C(=O)C2(C)C`, the result_ITMP is given as -8.43%.

With `C=CCc1ccc(O)c(-c2cc(CC=C)ccc2O)c1`, the result_ITMP is recorded as -1.71%.

As for `CC(=N)NCc1cccc(CN)c1`, the result_ITMP is given as -0.73%.

Take `NS(=O)(=O)Cc1noc2ccccc12`: the result_ITMP is on record as -5.73%. Then `CN(C)CCN(Cc1ccc(Cl)cc1)c1ccccn1`, with 32.5%. In the case of `C[C@H](NC[C@H](O)CP(=O)(O)Cc1ccccc1)c1ccc(Cl)c(Cl)c1` it was -0.85%; in that of `CC(=O)c1cc([N+](=O)[O-])c(Sc2ccc(F)cc2F)s1`, -1.5%.

On to `O=C1NC(=O)c2cc(Nc3ccc(F)cc3)c(Nc3ccc(F)cc3)cc21`, for which the result_ITMP is on record as 0.32%.

For the molecule `COC(=O)/C=C/C(=O)N[C@@H]1CC[C@@]2(O)C3Cc4ccc(O)c5c4[C@@]2(CCN3CC2CC2)[C@H]1O5`, the result_ITMP is given as -2%.

Turning to `CN[C@@H]1C(O)[C@@H](O[C@@H]2[C@@H](O)[C@H](O[C@H]3OC(CN)=CC[C@H]3N)[C@@H](N)C[C@H]2N)OC[C@]1(C)O` (stereo partly drawn), the result_ITMP is -3.24%.

Regarding `Cc1c(NC(=O)OC[C@@H]2COCCN2)cn2ncnc(Nc3ccc4c(cnn4Cc4cccc(F)c4)c3)c12`, the result_ITMP is 42.9%. As to `O=C(c1ccc(-c2ccc(Cl)cc2)o1)N(Cc1ccccn1)c1ccc(N2CCNCC2)cc1`, the result_ITMP amounted to 104%.

Regarding `Cc1ccc2nc(NCCN)c3ncc(C)n3c2c1`, the result_ITMP is on record as 38.8%.

For `CC(C)(C)c1cc(C=C(C#N)C#N)cc(C(C)(C)C)c1O`, the result_ITMP is listed as 0.84%. Then `CCCCCCOC(=O)/N=C(/N)c1ccc(NCc2nc3cc(C(=O)N(CCC(=O)OCC)c4ccccn4)ccc3n2C)cc1`, with 4.53%; and `CC(C[N+](C)(C)C)OC(N)=O` (stereo not drawn), with -0.34%. In the case of `CN1C2C[C@H](OC(=O)[C@H](CO)c3ccccc3)C[C@H]1[C@H]1OC21` (stereo partly drawn) it was -1.02%. In the case of `O=C(O)c1nn(Cc2ccc(Cl)cc2Cl)c2ccccc12` it was 0.38%; in that of `Cc1cc(C(C#N)c2ccc(Cl)cc2)c(Cl)cc1NC(=O)c1cc(I)cc(I)c1O` (stereo not drawn), 5.61%; in that of `COc1ccc2c(c1OC)C(=O)O[C@@H]2[C@H]1c2cc3c(cc2CCN1C)OCO3`, -2.56%. Consider `O=C(O)c1cc2cccc([N+](=O)[O-])c2[nH]1`, for which the result_ITMP is on record as -2.26%. Then `Oc1cc2c(cc1O)C(Cc1cccc3ccccc13)NCC2` (stereo not drawn), with 10.9%; and `CCOC(=O)c1c[nH]cn1`, with 0.53%. In the case of `COc1ccc(CCc2nc3cc(-c4c(C)noc4C)ccc3n2C[C@H](C)N2CCOCC2)cc1Cl` it was 20%; in that of `O=C1CCCCCCCCCCCCCCO1`, -5.89%; in that of `Clc1ccc(CCCOCCCN2CCCCC2)cc1`, 27.9%. In the case of `CNCc1ccc(-c2[nH]c3cc(F)cc4c3c2CCNC4=O)cc1` it was 13.3%. On to `COc1cc(N)c(Cl)cc1C(=O)CCC1CCN(CCNS(C)(=O)=O)CC1`, for which the result_ITMP worked out at 1.82%. Then `NCCc1cc[nH]n1`, with -0.16%. Then `CCCNC(C)C(=O)Nc1c(C)csc1C(=O)OC` (stereo not drawn), with 4.34%. Then `COc1cccc(N(C)C(=S)Oc2ccc3c(c2)CCCC3)n1`, with -7.28%; and `CCNC(=O)c1noc(-c2cc(C(C)C)c(O)cc2O)c1-c1ccc(CN2CCOCC2)cc1`, with -0.23%; and `Cc1ccc(-c2ncn(-c3ccc(Nc4nccc(-c5cccc(N6CCOCC6)c5)n4)cc3)n2)cn1`, with 5.71%.

`CCOC(=O)Nc1ccc(NCc2ccc(F)cc2)cc1N`: the result_ITMP is listed as -0.92%. In the case of `C[C@H](Nc1cc(-c2cnn(C)c2)cc(Nc2cnccn2)n1)c1ccc(F)cc1` it was 3.49%.

Regarding `CCn1c(-c2nonc2N)nc2cncc(C(=O)N3CC[C@H](N)C3)c21`, the result_ITMP is -0.58%.

Turning to `Nc1ccc(S(=O)(=O)[N-]c2cnc3ccccc3n2)cc1`, the result_ITMP is given as -3.26%.

In the case of `CC(C)Cn1cnc2c(N)nc3ccccc3c21`, the result_ITMP was 1.88%. In the case of `NC/C(=C/F)CCc1ccc(F)cc1` it was 6.45%.

Regarding `Cc1ccc(-c2ccc(C)cn2)nc1`, the result_ITMP was -8.2%. In the case of `Clc1cccc(Nc2nnc(-c3ccccc3)c3ccccc23)c1` it was -0.95%; in that of `COc1c(Nc2ccc(S(C)(=O)=O)nc2C)ncnc1OC1CCN(C(=O)OC(C)C)CC1`, -1.74%; in that of `Oc1ccc(C2(c3ccccc3F)CCC(F)(F)CC2)cc1`, 0.05%. Regarding `NC(=O)N1c2ccccc2CC(=O)c2ccccc21`, the result_ITMP is 11.4%.

On to `CN[C@H](CNC(=O)N1CCC[C@@H]([C@@H](OCCNC(=O)OC)c2cccc(Cl)c2)C1)C[C@H]1CCCOC1`, for which the result_ITMP is reported as 0.92%. In the case of `O=C(O)CCC(=O)O` it was -5.74%; in that of `NC1=NCC2c3ccccc3Cc3ccccc3N12` (stereo not drawn), 0.56%; in that of `CON(C)C(=O)N1N=C(c2cc(F)ccc2F)S[C@@]1(CCCN)c1ccccc1`, 27.9%. In the case of `Cc1nc2ccc(NC(=O)Nc3ccnc4cccnc34)cc2o1` it was -1.47%; in that of `Cn1ncnc1COc1nn2c(-c3cc(F)ccc3F)nnc2cc1C(C)(C)C`, -6.83%.

For the molecule `CNC(=O)c1ccc2cc(C3(O)CCn4cncc43)ccc2c1` (stereo not drawn), the result_ITMP was -0.4%. In the case of `CSCCC(N)C(=O)O` (stereo not drawn) it was -3.06%; in that of `OCc1cncc(F)c1`, -3.01%; in that of `Oc1nc(-c2ccc(C(F)(F)F)cc2)nc2c1CSCC2`, -1.76%. In the case of `COc1cc2c(cc1OC)-c1c/c(=N\c3c(C)cc(C)cc3C)n(C)c(=O)n1CC2` it was -1.31%. Regarding `Cc1cccc(Nc2ccncc2S(=O)(=O)NC(=O)NC(C)C)c1`, the result_ITMP worked out at 2.56%.

Consider `CS(=O)(=O)OC[C@H](O)[C@@H](O)COS(C)(=O)=O`, for which the result_ITMP was found to be 0.79%. Then `Cn1nnc(-c2ccc(-c3ccc(N4C[C@H](CO)OC4=O)cc3F)cn2)n1`, with -1.43%; and `Cc1ccc(Cl)cc1N(CC(=O)Nc1c(F)cccc1F)S(C)(=O)=O`, with 8.33%; and `CCOC(=O)[C@@H](N)Cc1ccc(O)c(O)c1`, with -3.83%. In the case of `O=C1Nc2ccc(I)cc2/C1=C/c1cc(Br)c(O)c(Br)c1` it was -2.07%; in that of `CNC(=O)c1cccc2cc(Oc3ccnc4cc(OCC5(N)CC5)c(OC)cc34)ccc12`, 24.5%. In the case of `CC[N+](CC)(CC(=O)Nc1c(C)cccc1C)Cc1ccccc1` it was 3.81%. Consider `COc1cc(NS(=O)(=O)c2ccc(N)cc2)nc(OC)n1`, for which the result_ITMP is recorded as -3.28%. In the case of `CC(=O)Oc1ccccc1C(=O)Nc1ccccc1` it was -0.15%.

As for `O=C1N=C2SCCN2C(=O)C1Cc1ccc(Cl)cc1` (stereo not drawn), the result_ITMP is -5.73%. Then `CCC(C)(C)c1ccc(CC(C)CN2C[C@@H](C)O[C@@H](C)C2)cc1` (stereo partly drawn), with -0.24%; and `CCNC(=O)[C@@H]1CCCN1C(=O)[C@H](CCCNC(=N)N)NC(=O)[C@H](CC(C)C)NC(=O)[C@@H](CC(C)C)NC(=O)[C@H](Cc1ccc(O)cc1)NC(=O)[C@H](CO)NC(=O)[C@H](Cc1c[nH]c2ccccc12)NC(=O)[C@H](Cc1c[nH]cn1)NC(=O)[C@@H]1CCC(=O)N1`, with -0.77%. With `C[C@]12CC[C@H]3[C@@H](CCC4=CC(=O)CC[C@@]43C)[C@@H]1CC[C@@H]2C(=O)CO`, the result_ITMP is given as -9.19%. In the case of `CCCCN1CCC(CNC(=O)c2c3n(c4ccccc24)CCCO3)CC1` it was 0.9%; in that of `Cc1ccccc1C(=O)Nc1ccc(C(=O)N2CCCC(N(C)C)c3ccccc32)cc1` (stereo not drawn), 20.6%; in that of `C=C[C@@](C)(/C=C/c1ccc(O)cc1)CCC=C(C)C`, -1.73%. In the case of `CCc1cccc(CC)c1N=C1NCCN1` it was -5.43%; in that of `Cc1ncccc1OC[C@@H]1CCCN1`, 8%; in that of `C[N+]1(C)CCc2cc3c(cc2[C@H]1[C@@H]1OC(=O)c2c1ccc1c2OCO1)OCO3`, 1.06%.
